The supplement of paper PMC11417369
This is one part of the list.

System: PF3D7_0420300 AP2 domain 1 (GST-tagged)
Test: gcPBM binding intensity (ln(normalized median fluorescence intensity)); higher = stronger DNA binding
Summary of the method: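 An Agilent 4 × 180k array of primer-extended double-stranded 36-bp intergenic genomic probes, with negative controls, was incubated for 1 h with GST-tagged P. falciparum DNA-binding domains expressed in E. coli. Alexa488 anti-GST antibody detected bound protein, scanned at 488 nm. Binding intensity is the highest Masliner-normalised natural-log median intensity across replicate spots of either probe orientation.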

Row | Sequence | gcPBM binding intensity (ln)
1 | GTCCCTATAAGGGGAACACACATAAATGAATATATA [CACACA_site1024] | 9.21
2 | AAATTTATAAAGAACACACACATATAAATATAAATA [CACACA_site6174] | 9.98
3 | TTATATATTTATATATGTACACATTTTACCATTTTT [XGTACX_site2142] | 9.3
4 | TATATTCATAATATTACACACGTTCATTTATTTTAA [CACACA_site2031] | 9.5
5 | GAGTGAAATATGCAAACACACACGAGAAAAATGTAT [CACACA_site3196] | 9.66
6 | TATGGTTTTAAAAAATGTACGCAAGTGCGTTAATTT [XGTACX_site3945] | 9
7 | AACAACCAAACGCACACACACAAAAAAAAAAATATA [CACACA_site6326] | 9.87
8 | TTATATGCATAAAAAGGTACACATATATAAATAAAT [XGTACX_site6894] | 9.44
9 | ACATTTAAAATTTATGCATGTGGTGTTTTGTATATA [TGCATGCA_site534] | 9.65
10 | TAATAAAATGTACACGCATGCAATAGAATATAAAGT [TGCATGCA_site905] | 9.71
11 | TTTGTGTAGGTGTGTAGTACATATAACTTATAACAT [XGTACX_site7885] | 9.56
12 | ATATTTATATATTGCACACAAAAAAAAAAAAAAATC [CACACA_site1629] | 9.51
13 | TATATATATATGTAATGTACATAAATTTTATACCTT [XGTACX_site6991] | 9.17
14 | TAATAAATAAAAATAGAACACACATATGTTTTTTTT [CACACA_site9185] | 9.39
15 | CAGTAGTATATACTATGTACATATTTATATTATATT [XGTACX_site4964] | 9.22
16 | AAAAAAAAAAAAAAATGTACATATATATAAATAAAA [XGTACX_site5574] | 9.18
17 | AAATATAATTAATGATGTACACTTATAGATATTGAT [XGTACX_site8435] | 9.34
18 | GGGTTAATATTTACTACACACACTTAAAATATGTAT [CACACA_site47] | 9.79
19 | ATGTATTTTTAAAAATATAAATTATGTAACTTGTGA [XGTACX_negctrl_site620] | 9.12
20 | TATTCTCGTTCTCATACACACAAAATATACATACAC [CACACA_site7278] | 9.68
21 | TATAATAAAATTTTTACACACTTTAAAAAAAAAAAA [CACACA_site524] | 9.06
22 | TACTGATATAATATAACCGTTTATGTGTATTTTTTA [XGTACX_negctrl_site81] | 9.37

Row | Sequence | gcPBM binding intensity (ln)
23 | TTCAAATATATGTTTTCACACACAAAAGAAATGAAA [CACACA_site8671] | 9.39
24 | CGTGGAAAAAAAAACACACACAAAAAAAAAAAAAAA [CACACA_site3997] | 9.19
25 | TTTTCTCTAAAAAGGTGTACAACTAATAATGCACTG [XGTACX_site6074] | 9.02
26 | ATATATATATAATATTGTACGAAAAAAAATAAAAAA [XGTACX_site974] | 9.43
27 | TATATTAATTATAAGACACACATATAGTAATAGAAA [CACACA_site2056] | 9.53
28 | AATAAGAAAACAAATGCACACCATTTATATAGATTA [CACACA_site8261] | 9.56
29 | ATGGGTTAGGCGTGTACACAATTGTATGGTTTAATA [CACACA_site4812] | 9.6
30 | TTTATATATTTTTATCTTGATAATAATGTTTTAGAA [TGCATGCA_negctrl_site300] | 8.82
31 | ACATATTTTTACTTTTGTACATATTTTTTAATTTTC [XGTACX_site640] | 9.53
32 | GTATATTACATAAAATGTACATAAAAAGCGGAAAAG [XGTACX_site6905] | 9.57
33 | AAGGGAAAAATATGGTTGCACTAAAAATATGTAATT [GTGCAC_site9605] | 9.2
34 | TTTCTATATAGATTTGCACACATAAAAATGCTTATA [CACACA_site2390] | 9.43
35 | CTTTATACATGACATAGTACCCATTTTAGATTTGAA [XGTACX_site5240] | 9.03
36 | TATTTTACTTTAAAAATGGAAAAAAAAAAGAATATT [CACACA_negctrl_site1360] | 9.13
37 | TTTTTTTTTTTTACATGTACATATGAATTATAATAT [XGTACX_site5016] | 9.2
38 | TTAATAAAACTAACACGTACACATATATAATATTAT [XGTACX_site3260] | 9.57
39 | GAAAGAAGCATAAATGTACACACATATTTATATATT [CACACA_site8368] | 9.5
40 | ATTGTCATCATTATATGTACGTAAAAGAATATAGAT [XGTACX_site3117] | 9.26
41 | TATGTTAAAAAAAAAAAAAAGAAAAAAATAAAAGGA [CACACA_negctrl_site119] | 9.44
42 | AAACAAATAGACACTTGTACGTAAGTAAATAATTAA [XGTACX_site6157] | 9.43
43 | AAAAATATATAAACACGTACACACACATATATGTAT [XGTACX_site7436] | 10.1
44 | ACATTTATATATAATTGTACCCTACATTCTCTTTTT [XGTACX_site189] | 9.5

Row | Sequence | gcPBM binding intensity (ln)
45 | GAAAAAAAAAAAAAAAGAAAATTCATATTTTTAATA [XGTACX_negctrl_site513] | 8.74
46 | TACCAAAAAAAAAAAAAAAATTAAATAAATATGAAA [TGCATGCA_negctrl_site383] | 8.9
47 | GGGTTGATATATATTTGTACATATTATTATTTATTA [XGTACX_site7116] | 9.72
48 | ATATATATATATTATGTGCGCATATACCATTTTAAT [GTGCAC_site9575] | 9.32
49 | TTTATTTTAACTTGTTCACACATTTGAATAAATAAA [CACACA_site5064] | 9
50 | TTTAAAAAAATGAAATAAAAAAAAAATAAAATAAAA [XGTACX_negctrl_site316] | 9.09
51 | ATATATATAATTTGTACACACAAATATGCATATATA [CACACA_site3432] | 9.48
52 | AAATAATTTATATATTGTACAAATATTAAATGCGAA [XGTACX_site3390] | 9.36
53 | AGATATTTTTCTTAAGTACACACTAAATAGAAACTA [CACACA_site44] | 9.18
54 | AGTCTGAATAAAATTACACACATATACCTATAAATA [CACACA_site6929] | 9.55
55 | TTTTTTTTTTTCAGTTGTACATTGGGAAAATATATA [XGTACX_site4416] | 9.01
56 | ATAAAATAAAACAACACACACGAATGTATAAATATA [CACACA_site4643] | 10
57 | TAATAATATAAATATGCACACAAATTATTACCCAAA [CACACA_site8805] | 9.5
58 | AATAAAATACAAAAATGTACAAATATAATATACATA [XGTACX_site279] | 9.35
59 | ATATATATTATAATAACACACATATATTATATTATA [CACACA_site406] | 9.37
60 | TATATATATAAATGAATGCACTTTAGAAAAAAGTAC | 9.09
61 | TAGATATATAGAATTACACACTTTTCTATAATATGA [CACACA_site6475] | 9.14
62 | TAATATAAAATGATAAATGAATGTGATCATTTTATA [CACACA_negctrl_site1034] | 9.2
63 | ACATACTCAAATAGCACACACATAAATAAAAATGTA [CACACA_site3864] | 9.79
64 | ATATATATTTAAAACGCATGCCTTGTTATATATATA [TGCATGCA_site624] | 9.3
65 | CATATATATTTTATATGTACATATATATTTTATATA [XGTACX_site8665] | 9.21
66 | ATTACAAAAATATATAAACACACAAATATAATATAT [CACACA_site8962] | 9.76

Row | Sequence | gcPBM binding intensity (ln)
67 | ATATAAATATTAATTACACACAAAAAAAAAAAAAAA [CACACA_site6671] | 9.35
68 | AATGGAAAAGGTAGTTGTACAACATGTTAAAATGGT [XGTACX_site1312] | 9.62
69 | TTGAAGAATAAATATGCACACATGCATATATTTTTA [CACACA_site5840] | 9.07
70 | ATATAAATAAACAACTTTGTTGGCCTTCCAAAATAT [CACACA_negctrl_site1181] | 9.23
71 | AATAAAAAAAAACGCACACACAAATATATTCCATTC [CACACA_site1224] | 10.1
72 | CTCAAAAAATTTCATAGTACTTTAAAATACTATAAT [XGTACX_site1939] | 8.84
73 | TTTTGTTCTAATATGGGAACATAAATATTAAATATA [CACACA_negctrl_site1787] | 8.8
74 | TTGGTTATACAACACATGCACACGTAAATAAATATT [CACACA_site3841] | 9.38
75 | AAGTATGCATTATATACACACATACATTTATATATT [CACACA_site4242] | 9.54
76 | ATTATGTTAAAAAGGCGTACATGTTATAAGGTCCTA [XGTACX_site344] | 9.26
77 | TATATATAAAGAGAAACATGCAAAATGTGAATATTC [TGCATGCA_site377] | 9.59
78 | TCCTTATAAATATATATATAATATATATATATATAT [CACACA_negctrl_site293] | 9
79 | TATATATATATTTATACACACATTAGTGTAGACATG [CACACA_site8964] | 9.46
80 | TTGTTCTAATATATTGCACACGTAAAAATATAGGTA [CACACA_site8195] | 9.3
81 | ATCATAAAAGTATACACACATACATACATATGTACA [CACACA_site2641] | 9.59
82 | ATAAAGATTTTCCAAGCATGCCACATAGTGAGATAC [TGCATGCA_site594] | 9.4
83 | TTATATATTTTTACCATACACACATATAATAAATAT [CACACA_site3721] | 9.5
84 | TAAATATATATATATGTACACACTCCAATACATATA [CACACA_site8858] | 9.38
85 | TATATATATATTATATGTACATATTCCTATATATAC [XGTACX_site7071] | 9.34
86 | ACTTTATATTTTGAACGTACAAAAAAAAAATTATGT [XGTACX_site5588] | 9.04
87 | AACCATTAATTCTCTACACACTTTTATTTTATTTAG [CACACA_site1769] | 9.68
88 | GCACATATATACATACATACATACATACATATGTAT [TGCATGCA_negctrl_site95] | 9.29
